Data published in PubChem BioAssay AID1477 (National Center for Advancing Translational Sciences (NCATS), 2009).
Fewer than 10 of roughly 230,000 compounds were called active. Inconclusive means that the source gave no clear call. Such entries were picked first, then a sample of the others. Calls follow the shape of the dose curve; as a rule, active = well fitted curve in the direction sought with a large enough effect; inconclusive = small, poorly fitted or top-dose-only effect, or effect the other way, or another doubt; inactive = no such curve, though single readings can be large or run the other way. Potencies of inconclusive entries are left out as doubtful fits.

Molecular target: Runt-related transcription factor 1 (Homo sapiens) + Core-binding factor subunit beta (Homo sapiens) (UniProt Q01196+Q13951)
Test: qHTS Assay for Compounds Blocking the Interaction Between CBF-beta and RUNX1 for the Treatment of Acute Myeloid Leukemia; as to activity, negative = inhibition: % of control where 0% means no effect
Conditions: AlphaScreen CBFb-His/RUNX1-biotin binding, biochemical; activity, negative = inhibition: at 59.8 µM (top of the series) unless noted
Text: NIH Chemical Genomics Center [NCGC]
NIH Molecular Libraries Probe Production centers Network [MLPCN]
Assay Submitter (PI): Paul Liu
Core Binding Factor (CBF) abnormalities are associated with 20-25% of all acute myeloid leukemias (AML), of which 5-10% are further sub classified as acute myelomonocytic leukemia with eosinophilia, also known as M4Eo in the FAB classification scheme. This subtype of leukemia is usually associated with chromosome 16 inversion (p13:q22). Chromosome 16 inversion results in formation of the fusion oncogene CBFB-MYH11, which encodes the fusion protein CBF-beta-SMMHC.
It has been hypothesized that the interference of CBF-beta and RUNX1 binding could have therapeutic implications for patients with CBF mediated leukemias. We developed a CBF-beta and RUNX1 binding assay in AlphaScreenTM format and optimized it for high throughput screening to search for inhibitors. The goal of this project is to screen MLPCN's compound collection (MLSMR) for identifying the inhibitors of the interaction between CBF-beta and RUNX1 proteins as research probes. If these probes work well in the animal models, the ultimate goal of this project is to development a new drug treatment for this disease.
This assay can not be used to assess how apparent inhibitors interfere with protein binding, and whether inhibitors specifically bind to either protein. Disruption of this protein-protein interaction, through any mechanism, is the intended target activity.
NCGC Assay Protocol Summary:
Step, Parameter, Description
(1) Reagent, 3 uL CBFb-His/RUNX1-biotin mix incubated together for 20 minutes at room temperature (30 nM each)
(2) Compound or control, 23 nL compound stock solution
(3) Incubation, 15 minutes at Room temperature
(4) Reagent, 1 uL 50 ng each of beads (Nickel beads and streptavidin beads)
(5) Incubation, 90 minutes at Room temperature
(6) Detection, Excitation=365 nm Emission=440 nm, Envision reader in AlphaScreenTM mode
Keywords: MLSMR, MLPCN, NIH Roadmap, qHTS, NCGC, Core binding factor, CBF, CBF-beta, Acute myeloid leukemia

Sequence of UniProt Q01196 (Q01196 whole entry, looked up): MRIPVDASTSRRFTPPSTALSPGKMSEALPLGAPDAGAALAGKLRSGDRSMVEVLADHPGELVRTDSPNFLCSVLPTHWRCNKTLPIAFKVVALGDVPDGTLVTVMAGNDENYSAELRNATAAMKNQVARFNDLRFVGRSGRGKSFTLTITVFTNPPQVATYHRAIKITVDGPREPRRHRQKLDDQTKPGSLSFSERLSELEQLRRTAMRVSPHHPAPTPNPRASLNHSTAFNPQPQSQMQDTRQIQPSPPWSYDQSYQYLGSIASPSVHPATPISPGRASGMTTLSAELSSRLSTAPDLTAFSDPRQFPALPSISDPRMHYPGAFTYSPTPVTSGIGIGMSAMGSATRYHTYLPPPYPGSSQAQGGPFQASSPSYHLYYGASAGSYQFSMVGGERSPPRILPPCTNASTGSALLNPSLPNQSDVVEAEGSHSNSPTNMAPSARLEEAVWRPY
Sequence of UniProt Q01196 (Q13951 whole entry, looked up): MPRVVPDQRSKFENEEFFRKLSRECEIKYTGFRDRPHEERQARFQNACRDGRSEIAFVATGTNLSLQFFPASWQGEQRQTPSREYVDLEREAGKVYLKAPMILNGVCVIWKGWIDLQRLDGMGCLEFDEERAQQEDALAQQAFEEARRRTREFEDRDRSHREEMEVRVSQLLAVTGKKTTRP

SMILES	Potency	activity, negative = inhibition
Cc1ccc(C)c(NC(=S)N(CCN(C)C)C(C)c2ccccn2)c1 (stereo not drawn)	inconclusive [inhibitor, partial curve]	–
COc1ccc(CNC(=S)N/N=C(\C)c2ccc(OC)cc2)cc1	inconclusive [inhibitor, single point]	–
CCc1cc[n+](C2=C([O-])c3ccccc3C(=O)/C2=N\S(=O)(=O)c2cccs2)cc1	inconclusive [inhibitor, single point]	–
N#CC(C#N)=Cc1cc2ccccc2nc1N1CCCCC1	inconclusive [activator, single point]	–
COc1cc2nc(N3CCN(C(=O)C4COc5ccccc5O4)CC3)nc(N)c2cc1OC (stereo not drawn)	inconclusive [inhibitor, single point]	–
COc1cc(C=O)ccc1OCCOCCOc1ccc(Cl)cc1	–	inactive: 14.9%
CCCC(=O)N(c1ccc2oc(=O)sc2c1)S(=O)(=O)c1ccccc1	inconclusive [inhibitor, partial curve]	–
Cc1ccn2c(-c3csc(NCc4ccccc4)n3)c(C)nc2c1	inconclusive [inhibitor, single point]	–
CC(=O)c1c(C)[nH]c(C(=O)CSc2nc3ccccc3n2C)c1C	–	inactive: -5.53%
NCC(=O)Nc1ccc(Cl)cc1C(=O)c1ccc[nH]1	inconclusive [inhibitor, full curve]	–
N#C/C(=N\Nc1ccc(S(=O)(=O)N2CCc3ccccc32)cc1)C(N)=S	inconclusive [inhibitor, partial curve]	–
CC(C)CC(=O)Nc1ccc(-c2nc3ccccc3c(=O)o2)cc1	–	inactive: -7.08%
COc1ccc(S(=O)(=O)n2ccc(C(C)Oc3ccc(-c4ccccc4)c(F)c3)n2)cc1 (stereo not drawn)	inconclusive [activator, partial curve]	–
CCCCCCCCN=C(N)c1ccc(C(=O)OCC2CCCCC2)cc1	–	inactive: 21.4%
Nc1ncnc(NC2CCS(=O)(=O)C2)c1[N+](=O)[O-] (stereo not drawn)	–	inactive: 8.28%
Cc1nc2c(ccc3nc(NC(=O)c4ccc5c(c4)OCCO5)sc32)s1	inconclusive [activator, partial curve]	–
Cc1cc(C)c(C)c(S(=O)(=O)N2CCN(c3ccc(O)cc3)CC2)c1C	inconclusive [inhibitor, single point]	–
COc1ccccc1C1CC(=O)Oc2cc(C)c(Cl)cc21 (stereo not drawn)	inconclusive [activator, partial curve, poor fit]	–
COC(=O)CCC(=O)Nc1ccc(N=Nc2ccccc2)cc1	inconclusive [inhibitor, partial curve]	–
COc1ccccc1NC(=O)CSc1ccc2nnc(-c3ccccn3)n2n1	inconclusive [inhibitor, partial curve]	–
Cc1[nH]c2ccccc2c1C(=O)CN1CCCC1	inconclusive [inhibitor, single point]	–
COc1ccc(C2CC(=O)Oc3c(C(CCN4CCCCC4)c4ccc(N(C)C)cc4)c(OC)cc(OC)c32)cc1 (stereo not drawn)	inconclusive [inhibitor, single point]	–
COc1cc(-c2cc(-c3ccc(F)cc3)nc(N)c2C#N)ccc1O	inconclusive [activator, single point]	–

SMILES	Potency	activity, negative = inhibition
Cc1nn(-c2ccccc2)c(Cl)c1/C=N/Nc1ccc(S(=O)(=O)Nc2ccccc2C(=O)O)cc1[N+](=O)[O-]	inconclusive [inhibitor, partial curve]	–
O=C(NCCCN1CCOCC1)c1sc2cc(Cl)ccc2c1Cl	–	inactive: 9.46%
COC(=O)CN1C(c2ccc(Cl)cc2)=Nc2ccc(Cl)cc2C1c1ccccc1 (stereo not drawn)	–	inactive: 1.3%
COc1cc(NC(=O)c2cccnc2)ccc1-c1cc2ccccc2oc1=O	inconclusive [activator, partial curve]	–
O=C(NCc1ccccc1)c1ccc(Br)cc1Br	–	inactive: -10.9%
Cc1c(N)cc(N)cc1C(=O)O	inconclusive [inhibitor, single point]	–
COc1ccc(Cc2nc(-c3ccc(Cl)cc3)no2)cc1	inconclusive [activator, single point]	–
Nc1ccccc1C(=O)N=Nc1[nH]c(N)c2ccccc12	inconclusive [inhibitor, single point]	–
CN(C)S(=O)(=O)c1cccc(NC(=S)Nc2cccc3cnccc23)c1	inconclusive [inhibitor, single point]	–
NNC(=O)c1nc[nH]c1C(=O)Nc1ccccc1[N+](=O)[O-]	inconclusive [inhibitor, partial curve]	–
Oc1ccc(CN2CCN(c3ccccc3)CC2)c2cccnc12	inconclusive [inhibitor, full curve]	–
Cc1ccc(-c2cc(C(=O)Nc3ccc(S(=O)(=O)Nc4nccs4)cc3)c3ccccc3n2)c(C)c1	inconclusive [inhibitor, single point]	–
FC(F)(F)c1cccc(OCc2nnc3n2CCC3)c1	inconclusive [activator, single point]	–
CC1=C([N+](=O)[O-])C(c2cccc(Br)c2)C2=C(N1)c1ccccc1C2=O (stereo not drawn)	inconclusive [inhibitor, single point]	–
C=C/C(C)=C/[C@@]1(C)SC(=O)C(C)=C1O	inconclusive [inhibitor, partial curve]	–
Cc1ccc(S(=O)(=O)CC(O)COc2ccccc2C#N)cc1 (stereo not drawn)	–	inactive: -0.657%
COc1ccc2c(c1)c(CC(=O)O)c(C)n2C(=O)c1ccccc1	inconclusive [activator, full curve, poor fit]	–
COc1ccc(N=C2SCC(c3ccc([N+](=O)[O-])cc3)=NN2CCO)cc1	inconclusive [inhibitor, single point]	–
COc1cc(C=O)ccc1OCCCCOc1ccccc1[N+](=O)[O-]	–	inactive: -3.08%
COc1ccccc1N1C(=O)C2C(C(=O)c3ccccc3)=NN(c3ccc(C)cc3)C2C1=O (stereo not drawn)	inconclusive [activator, partial curve]	–
Clc1cc(CSc2ccccc2)nc(-c2ccccc2)n1	inconclusive [activator, partial curve]	–
COC1=C(Nc2ccccc2OC)C(=O)c2ccccc2C1=O	inconclusive [inhibitor, single point]	–
COc1ccc(CCNC(=O)c2ccc(-c3ccc([N+](=O)[O-])cc3Cl)o2)cc1OC	inconclusive [inhibitor, single point]	–

SMILES	Potency	activity, negative = inhibition
COc1ccccc1N1CCN(CC(O)COCCOc2ccc(Br)cc2)CC1 (stereo not drawn)	inconclusive [inhibitor, single point]	–
C=C1CCN(C(C)C(=O)OCc2ccc(C)cc2)S(=O)(=O)c2ccccc21 (stereo not drawn)	inconclusive [activator, partial curve]	–
COc1ccccc1/C(O)=C(\C#N)c1nc2ccccc2[nH]1	inconclusive [activator, single point]	–
Cn1c(Cc2cccs2)nnc1SCC(=O)N1CCCc2ccccc21	–	inactive: -0.487%
Cc1ccc(/C=C/C(=O)NCc2ccccn2)o1	inconclusive [inhibitor, single point]	–
CC(=O)N1CN2CN(C(C)=O)CC(C(=O)c3ccc(Br)cc3)(C2)C1	inconclusive [inhibitor, single point]	–
CC1CN(C(NC(=O)c2ccccc2)C(Cl)(Cl)Cl)CC(C)O1 (stereo not drawn)	–	inactive: -0.327%
CC(C)N=c1scc(-c2ccco2)n1/N=C/c1ccc(O)c(O)c1	inconclusive [inhibitor, single point]	–
NC[C@H]1O[C@H](O[C@H]2[C@H](O)[C@@H](O[C@H]3O[C@H](CO)[C@@H](O)[C@H](N)[C@H]3O)[C@H](N)C[C@@H]2N)[C@H](N)C[C@@H]1O	inconclusive [inhibitor, single point]	–
CCC1=NN2C(=N)/C(=C\c3cccn3-c3ccc(Br)cc3)C(=O)N=C2S1	–	inactive: -6.65%
COc1cc(-c2cc(=O)c3ccccc3o2)ccc1O	inactive	–
O=C(CCl)Nc1ccc(N=Nc2ccccc2)cc1	–	inactive: 3.77%
COC(=O)c1ccc(CNCC(=O)Nc2ccc(C(=O)OC)cc2)cc1	inconclusive [activator, single point]	–
COCCCNC(=S)N(Cc1ccccc1)Cc1ccccc1	inconclusive [activator, single point]	–
CCCc1cc(=O)[nH]c(SCC(=O)c2cc(C)n(CCC)c2C)n1	inconclusive [inhibitor, single point]	–
CC(=O)NC(=S)Nc1ccc(N2CCOCC2)c(S(=O)(=O)Nc2cc(Cl)ccc2Cl)c1	–	inactive: -3.95%
COc1ccc(-c2nnc(Nc3nc4c(OC)cccc4s3)o2)cc1	inconclusive [inhibitor, full curve, poor fit]	–
Fc1ccc(N2CCN(C(c3cccs3)c3nnnn3CCc3ccccc3)CC2)cc1 (stereo not drawn)	–	inactive: -9.26%
O=c1ccn([C@@H]2O[C@H](COP(=O)(O)OP(=O)(O)O)[C@@H](O)[C@H]2O)c(=O)[nH]1	inconclusive [activator, single point]	–
NC(=O)c1sc2nc(-c3ccco3)ccc2c1N	inconclusive [inhibitor, partial curve]	–
Fc1ccc(OCc2nc(-c3cccs3)no2)cc1	inconclusive [activator, partial curve]	–
CCOC(=O)C1=C(c2ccccc2)c2cc(OC)ccc2OC1C(=O)OCC (stereo not drawn)	inconclusive [activator, partial curve, poor fit]	–
